Consider 81 molecules from PubChem BioAssay AID1645887 (National Center for Advancing Translational Sciences (NCATS), 2021).

Values joined by “and” are separate entries in the source; they are usually repeats but may differ in a detail not shown here. Equal values may be shown once. Out of some 16,000 compounds screened, about 40 (0.2%) were called active. Not shown: some 1% with an inconclusive outcome. The call rests on the fitted dose curve; in most records, active means well fitted activation curve with a large enough effect; inconclusive means small, poorly fitted or top-dose-only effect, or another doubt; inactive means no such curve, though single readings can be large or run the other way. This is one part of the list.
On the % scale 0 is the no-effect control and ±100 the full control effect.

Chain of UniProt Q8WZA2 (Q8WZA2 whole entry, looked up): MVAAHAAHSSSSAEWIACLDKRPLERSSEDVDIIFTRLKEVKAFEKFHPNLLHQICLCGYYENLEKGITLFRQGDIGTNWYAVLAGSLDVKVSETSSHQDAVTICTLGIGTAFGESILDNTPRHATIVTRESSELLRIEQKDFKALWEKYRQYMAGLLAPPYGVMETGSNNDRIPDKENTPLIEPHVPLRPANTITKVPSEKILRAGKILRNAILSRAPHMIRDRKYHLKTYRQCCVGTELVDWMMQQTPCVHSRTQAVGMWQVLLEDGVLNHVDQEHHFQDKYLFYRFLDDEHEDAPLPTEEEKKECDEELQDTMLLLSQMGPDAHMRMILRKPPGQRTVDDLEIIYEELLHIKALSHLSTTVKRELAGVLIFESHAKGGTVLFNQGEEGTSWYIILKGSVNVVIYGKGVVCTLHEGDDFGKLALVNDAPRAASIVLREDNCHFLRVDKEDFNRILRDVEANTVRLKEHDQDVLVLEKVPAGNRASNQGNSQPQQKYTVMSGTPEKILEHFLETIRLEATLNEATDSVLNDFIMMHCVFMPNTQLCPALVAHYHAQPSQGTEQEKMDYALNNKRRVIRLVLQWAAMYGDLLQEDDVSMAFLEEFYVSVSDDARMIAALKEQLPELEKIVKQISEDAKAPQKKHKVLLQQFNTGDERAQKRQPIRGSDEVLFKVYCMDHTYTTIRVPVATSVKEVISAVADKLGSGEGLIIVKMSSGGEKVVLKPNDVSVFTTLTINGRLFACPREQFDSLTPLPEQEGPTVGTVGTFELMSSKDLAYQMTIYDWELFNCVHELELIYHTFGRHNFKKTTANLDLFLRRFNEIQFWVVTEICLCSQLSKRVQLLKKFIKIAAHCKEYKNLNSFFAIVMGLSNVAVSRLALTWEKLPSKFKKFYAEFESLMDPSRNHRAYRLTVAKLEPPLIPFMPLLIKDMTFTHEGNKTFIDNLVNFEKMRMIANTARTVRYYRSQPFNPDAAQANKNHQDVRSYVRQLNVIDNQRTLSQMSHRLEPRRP

In the experiment the target is Rap guanine nucleotide exchange factor 4 (Homo sapiens) (UniProt Q8WZA2). In words: Validation qHTS for agonist of cAMP-regulated guanine nucleotide exchange factor 4 (EPAC2).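 Further: exchange makes BODIPY-GDP fluorescence drop when released from Rap1B; series mostly up to about 150 µM.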 As to conditions: EPAC2 Rap1B BODIPY-GDP exchange, fluorescence; activation: active compounds read high. In short, it runs like this:
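Fluorescent exchange assay: 100 nM EPAC2 with 250 nM RAP1B-BODIPY-GDP and 50 uM GDP; compound added, 5 min at room temperature, then read (ex 480/em 540 nm) every 5 min for 30 min. Normalized to 6.5 mM cAMP agonist control.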
(Quantitative high-throughput screening tests each substance at several concentrations.)
Consider `c1ccc2c(Cc3c[nH]c4ccccc34)c[nH]c2c1`, for which the activation was inactive: 11.3%.
The same measure for `Cc1sc(N)c(C(=O)c2cccc(C(F)(F)F)c2)c1C`: inactive: -27.7%; for `COc1ccc(OC)c2c(=S)c3ccccc3[nH]c12`: inactive: -10.2%; for `CN=C1N[C@H](c2ccccc2)N(c2ccccc2)S1`: inactive: -21.1%.
With `COc1cccc(Cn2c(=O)c(-c3cc(F)cc(F)c3)nc3cncnc32)c1`, the activation was inactive: -2.55%.
In the case of `Nc1nc(OCc2ccccc2)c2[nH]cnc2n1`, the activation is inactive: -9.95%.
Consider `Cn1cnc2nc(NCCO)nc(NCc3ccccc3)c21`, for which the activation is inactive: -9.78%.
Turning to `O=c1[nH]c(=O)c2[nH]c(=O)[nH]c2[nH]1`, the activation was inactive: -2.36% and inactive: 6.35%.
For `COCC(=O)Nc1cc(C(=O)N2CC3CCCC2C3)c2c(c1)nc(-c1ccncc1)n2C` (stereo unspecified), the activation was inactive: -2.61%.
Regarding `Cc1cccc2c(N3CCCC3)nc(CNS(=O)(=O)c3ccccc3F)nc12`, the activation is inactive: -0.576%.
In the case of `O=C(Nc1cccc(F)c1)N1CCCC2(CCN(C(=O)c3ccncc3)CC2)C1`, the activation is inactive: -13.2%.
As to `CC(=O)OCC(=O)C1CCC2C3CC=C4CC(O)CC[C@@]4(C)C3CC[C@]12C` (stereo partly specified), the activation is inactive: -8.58%.
Regarding `CCCCC(=O)O[C@H]1CC[C@H]2[C@@H]3CCc4cc(O)ccc4[C@H]3CC[C@]12C`, the activation is inactive: -37.7%.
`Cc1noc(C)c1-c1nccc(NC2CC2)n1`: the activation is inactive: -2.86%.
As for `c1ccc2sc(SSc3nc4ccccc4s3)nc2c1`, the activation is inactive: -4.43%.
As to `c1ccc(CNc2ncncc2-c2cccnc2)cc1`, the activation is inactive: -21.4%.
Then `COC(=O)Nc1nc2ccc(C(=O)c3ccccc3)cc2[nH]1`, with inactive: -6.89% and inactive: -9.89%; and `COc1cccc(-c2cncnc2NCc2cccc(C)c2)c1`, with inactive: -11.1%.
Consider `NC(=O)C1c2ccccc2CCc2ccccc21`, for which the activation was inactive: -0.466%.
The same measure for `Cn1c(NCCN(CCO)CCCc2ccc([N+](=O)[O-])cc2)cc(=O)n(C)c1=O`: inactive: -33%; for `N=C(N)SCCc1ccc(OCc2ccc([N+](=O)[O-])cc2)cc1`: inactive: 8.37%; for `CC[C@@H]1[C@H]2CCCC(=O)N3CC[C@@H](C[C@@H]1Nc1ccccc1)[C@@H]23`: inactive: -28.1%.
For the molecule `O=C(OC[C@H]1O[C@@H](OC(=O)c2cc(O)c(O)c(OC(=O)c3cc(O)c(O)c(O)c3)c2)[C@H](OC(=O)c2cc(O)c(O)c(OC(=O)c3cc(O)c(O)c(O)c3)c2)[C@@H](OC(=O)c2cc(O)c(O)c(OC(=O)c3cc(O)c(O)c(O)c3)c2)[C@@H]1OC(=O)c1cc(O)c(O)c(OC(=O)c2cc(O)c(O)c(O)c2)c1)c1cc(O)c(O)c(OC(=O)c2cc(O)c(O)c(O)c2)c1`, the activation is inactive: -28.4%.
In the case of `N=C(N)c1ccc(OCCCCCOc2ccc(C(=N)N)cc2)cc1`, the activation is inactive: -5.03% and inactive: -5.06%.
`COc1ccc(C(=O)N2CCC3(CCN(C(=O)Nc4ccccc4)CC3)CC2)cc1`: the activation is inactive: -1.67%.
Then `COc1cccc(CN2CCCC(c3nc(C)ncc3-c3ccc(F)cc3)C2)c1OC` (stereo unspecified), with inactive: -1.16%; and `CCn1nc(C)cc1C(=O)NCCN1Cc2ccccc2OC(c2ccccc2F)C1` (stereo unspecified), with inactive: -3.52%.
Regarding `Fc1ccc(C(c2ccc(F)cc2)N2CCN(C/C=C/c3ccccc3)CC2)cc1`, the activation was inactive: -6.26% and inactive: -6.59% and inactive: -5.37%.
Consider `COC(=O)C1=C(C)NC(C)=C(C(=O)OCC(C)=O)C1c1ccccc1[N+](=O)[O-]` (stereo unspecified), for which the activation is inactive: 2.84%.
In the case of `c1ccc2c(NCCN3CCOCC3)nc(-c3ccoc3)nc2c1`, the activation is inactive: -5.05%.
On to `CN1CCc2c(c3ccccc3n2Cc2ccccc2)C1`, for which the activation was inactive: -8.51% and inactive: -2.42%.
As to `COc1cc(-c2noc(C)c2C#CC2(O)CCCCC2)cc(OC)c1OC`, the activation was inactive: -25.1%.
Take `O=C1[C@H](Cc2ccccc2)NC/C=C\C[C@@H](c2ccco2)N1Cc1ccccc1`: the activation is inactive: -30.8%.
For `COc1cc(CN2CCOc3ccc(CN4CCC(Oc5cccnc5)CC4)cc3C2)ccc1F`, the activation was inactive: -18.3%.
For `Nc1nc(N)c2nc(CNc3ccc(C(=O)NC(CCC(=O)O)C(=O)O)cc3)cnc2n1` (stereo unspecified), the activation is inactive: -11.1%.
For `COc1ccc(-n2c(=O)c(-c3cccs3)nc3cncnc32)cc1`, the activation was inactive: -11.4%.
For `CC(NC(=O)C1CCOCC1)c1nnc2n1CCN(Cc1ccc3cccnc3c1)CC2` (stereo unspecified), the activation is inactive: -11.4%.
As to `CC(=O)c1ccc[n+](CC(=O)c2ccc(F)cc2)c1`, the activation was inactive: -18.9%.
Then `O=C(c1cnccn1)N1CCC2(CC1)CCN(c1ncccn1)CC2`, with inactive: -23.9%.
Take `CCCCNC(=O)O[C@@H]1C[C@H]2CCCC(=O)N3CC[C@@H](C1)[C@@H]23`: the activation was inactive: -16.1%.
With `CC(C)(CO)[C@@H](O)C(=O)NCCCC(=O)O`, the activation is inactive: 0.517%.
As for `NC(=NCc1ccccc1)NC(=O)c1nc(Cl)c(N)nc1N`, the activation was inactive: 5.24% [middle of 4 runs].
For `C1=Cc2ccccc2/C1=C\c1ccc2c(c1)OCO2`, the activation is inactive: 2.94%.
Then `Cc1ccc(Nc2c(F)cccc2Cl)c(CC(=O)O)c1`, with inactive: -22.7%.
On to `O=C(O)c1cc(O)c2c(c1)C(=O)c1cccc(O)c1C2=O`, for which the activation is inactive: -23.7%.
Turning to `CC1(C)C(\C=C/C=C\C=C/C=C2/N(CCCCS(=O)(=O)O)c3ccc4ccccc4c3C2(C)C)=[N+](CCCCS(=O)(=O)[O-])c2ccc3ccccc3c21`, the activation is inactive: 24.9%.
The same measure for `CCCCN1CC[C@H]2C=CC[C@@H](C(=O)Nc3ccccc3)[C@H]2C1=O`: inactive: -1.88%.
`COc1ccccc1C(=O)Nc1cccc(N2CCC(NCc3cnn(-c4ccccc4)n3)CC2)c1`: the activation is inactive: 13.4%.
`CN1CC[C@@]2(CCCN(S(=O)(=O)c3ccccc3)C2)C1`: the activation was inactive: -9.67%.
Turning to `COc1cccc2c1[C@@H]1CN(CCCCn3c(=O)[nH]c4c(sc5ncc(-c6ccccc6)nc54)c3=O)C[C@@H]1CO2`, the activation was inactive: -7.71%.
Take `CCCCCCCCCCCCCCCC(=O)OC[C@@H](O)[C@H]1OC[C@H](O)[C@H]1O`: the activation is inactive: -20.3%.
The same measure for `COc1ccc(C(=O)N2CCC[C@@]3(CCN(c4ccccn4)C3)C2)cc1`: inactive: -1.52%; for `NCCNC(=O)c1ccc(Cl)cn1`: inactive: -13.8%.
For the molecule `O=C(/C=C/c1ccc(O)c(O)c1)O[C@H]1C[C@@](O)(C(=O)O)CC(O)C1O` (stereo partly specified), the activation was inactive: -1.35%.
With `O=C(c1ccc2c(c1)OCO2)N1CCOc2ccc(CN3CCC(Oc4cccnc4)CC3)cc2C1`, the activation was inactive: -2.98%.
Then `FC(F)(F)C(F)(F)C(F)(F)C(F)(F)C(F)(F)C(F)(F)F`, with inactive: 0.487%; and `N#Cc1ccc(CN2CCCC3(CCN(C(=O)c4cc(C(F)(F)F)cc(C(F)(F)F)c4)CC3)C2)cc1`, with inactive: -11.4%.
The same measure for `C=C1CCC[C@]2(C)C[C@H]3OC(=O)[C@H](CNCCc4ccccc4OC)C3CC12` (stereo partly specified): inactive: -14%; for `COc1cccc(CN2CCC3(CC2)c2ccccc2[C@@H](NC(=O)c2ccccc2OC)[C@@H]3O)c1`: inactive: -4.35%; for `CC(=O)Oc1ccc(C)cc1`: inactive: -5.22%.
Then `COc1ccc(CN2C[C@H](Sc3nc4ccccc4[nH]3)C[C@H]2C(=O)N2CCCN(C)CC2)cc1C`, with inactive: 0.974%; and `CC1(C)CO[C@@H](CC(=O)O)CN1`, with inactive: 24.4%.
As to `COc1cc(-c2noc(C)c2C#CCCN2C(=O)c3ccccc3C2=O)cc(OC)c1OC`, the activation was inactive: -12.1%.
Then `O=C1CCN(CCc2ccccc2)CCN1[C@H](COc1ccccc1)c1ccccc1`, with inactive: -19.9%.
Then `COc1cccc(-n2c(SC)nnc2C2CCN(Cc3nc4ccccc4s3)CC2)c1`, with inactive: -4.49%; and `CNC(C)[C@@H]1CC[C@@H](N)[C@@H](O[C@H]2[C@H](O)[C@@H](O[C@H]3OC[C@](C)(O)[C@H](NC)[C@H]3O)[C@H](N)C[C@@H]2N)O1` (stereo partly specified), with inactive: -13.9%; and `Oc1cccc(-c2c3nc(c(-c4cccc(O)c4)c4ccc([nH]4)c(-c4cccc(O)c4)c4nc(c(-c5cccc(O)c5)c5ccc2[nH]5)CC4)C=C3)c1`, with inactive: -5.84% and inactive: -22.1%.
Regarding `CN[C@@H]1[C@H](O[C@H]2[C@H](O[C@H]3[C@H](O)[C@@H](O)[C@H](N=C(N)N)[C@@H](O)[C@@H]3N=C(N)N)O[C@@H](C)[C@]2(O)C=O)O[C@@H](CO)[C@H](O)[C@H]1O`, the activation is inactive: 7.36%.
For the molecule `Cc1cccc(C(=O)O)c1O`, the activation was inactive: 6.72%.
As to `COCC(=O)N1CCC[C@@]2(CCN(c3ccncc3)C2)C1`, the activation was inactive: -13.6%.
As for `Cn1cc(C(=O)[C@@H]2CCc3nc[nH]c3C2)c2ccccc21`, the activation was inactive: -3.04%.
On to `Nc1nc(Cl)nc2c1ncn2[C@H]1C[C@H](O)[C@@H](CO)O1`, for which the activation is inactive: 4.66% and inactive: -4.13%.
Turning to `COCCn1c(=O)c(CCc2ccccc2)nc2cnc(N(C)C)nc21`, the activation was inactive: 1.89%.
Turning to `Cc1cnc(CNc2ccnc(-c3ccoc3)n2)cn1`, the activation is inactive: 4.63%.
Turning to `CCc1cc(S(=O)(=O)O)c2cc(C(C)C)cccc1-2`, the activation was inactive: -16.4%.
In the case of `COc1cc(-c2oc3cc(O)ccc3c(=O)c2O)ccc1O`, the activation is inactive: -10.4%.
With `OCCOCCN1CCN(C2=Nc3ccccc3Sc3ccccc32)CC1`, the activation is inactive: -9.24% and inactive: -25.7%.
Regarding `CCNc1ncc2nc(C)c(=O)n(Cc3ccc(F)cc3)c2n1`, the activation was inactive: 10.8%.
Consider `Cc1cc(O)c(C)c(O)c1C(=O)O`, for which the activation is inactive: 2.2%.
Regarding `O=c1cc(-c2ccccc2O)oc2c(O)c(O)ccc12`, the activation is inactive: -10.3%.
The same measure for `O=C(NCCc1ccccn1)C1CC12CCN(C(=O)c1ccccc1Cl)CC2` (stereo unspecified): inactive: -15.9%.
